# Assay results taken from publication PMC4336329 (PLoS ONE, 2015).
# About 2,200 (0.71%) of roughly 310,000 compounds showed an effect of 50% or more. Effects have a minus sign here. The list shows a part of the results.
# Target: human ether-à-go-go-related gene (hERG) potassium channel (human, UniProt Q12809)
# Assay: primary screen, population patch clamp on CHO cells stably expressing hERG
# Chain of human ether-à-go-go-related gene (hERG) potassium channel (Q12809 whole entry, looked up): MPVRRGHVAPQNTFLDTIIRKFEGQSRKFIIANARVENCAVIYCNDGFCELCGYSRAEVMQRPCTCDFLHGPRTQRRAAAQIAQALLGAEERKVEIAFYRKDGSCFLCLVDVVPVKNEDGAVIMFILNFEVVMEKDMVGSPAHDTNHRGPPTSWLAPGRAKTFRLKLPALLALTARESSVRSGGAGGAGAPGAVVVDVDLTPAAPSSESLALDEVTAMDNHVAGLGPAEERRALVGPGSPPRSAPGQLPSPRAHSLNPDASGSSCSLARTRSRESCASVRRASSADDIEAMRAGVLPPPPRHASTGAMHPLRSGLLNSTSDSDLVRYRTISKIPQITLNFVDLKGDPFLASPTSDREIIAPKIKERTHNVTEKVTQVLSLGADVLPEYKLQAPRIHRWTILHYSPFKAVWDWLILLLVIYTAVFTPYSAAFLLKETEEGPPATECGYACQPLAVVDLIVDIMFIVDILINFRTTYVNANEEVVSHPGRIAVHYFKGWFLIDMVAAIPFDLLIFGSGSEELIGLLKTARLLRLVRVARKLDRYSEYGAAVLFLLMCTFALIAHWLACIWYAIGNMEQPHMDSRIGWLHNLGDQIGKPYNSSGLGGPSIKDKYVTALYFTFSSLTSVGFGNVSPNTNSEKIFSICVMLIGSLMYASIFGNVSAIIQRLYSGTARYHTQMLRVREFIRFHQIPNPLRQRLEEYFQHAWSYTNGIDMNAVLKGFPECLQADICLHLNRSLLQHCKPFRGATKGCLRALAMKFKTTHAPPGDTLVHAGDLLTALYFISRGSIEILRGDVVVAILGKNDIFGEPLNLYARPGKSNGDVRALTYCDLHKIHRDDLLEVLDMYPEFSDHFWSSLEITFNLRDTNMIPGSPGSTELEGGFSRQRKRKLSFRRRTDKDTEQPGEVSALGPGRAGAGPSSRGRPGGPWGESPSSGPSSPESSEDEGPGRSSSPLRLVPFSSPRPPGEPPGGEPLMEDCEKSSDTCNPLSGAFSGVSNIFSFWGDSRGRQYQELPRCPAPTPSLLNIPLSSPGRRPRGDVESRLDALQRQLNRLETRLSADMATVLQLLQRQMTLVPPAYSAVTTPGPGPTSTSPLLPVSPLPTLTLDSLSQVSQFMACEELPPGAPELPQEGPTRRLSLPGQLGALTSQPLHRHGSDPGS
row,SMILES,"hERG current change (%, negative = inhibition) at 1uM [%]"
1,Cc1ccc(-c2cc(C(=O)NCCc3ccccn3)c3ccccc3n2)c(C)c1,-13.8
2,CCCCn1c(NS(=O)(=O)c2ccccc2)c(C(=O)OCC)c2nc3ccccc3nc21,3.53
3,COc1cccc(CN2CC(C(=O)NCCN3CCOCC3)CCC2=O)c1 (stereo not shown),0.381
4,Cc1cccc(CSCCNC(=S)Nc2ccccc2)c1,17.6
5,COc1ccc(S(=O)(=O)Cc2ccc(C(=O)NCc3ccccn3)o2)cc1,9.71
6,CCn1c(CNC(=O)c2ccccc2)nnc1SCC(=O)N1CCN(c2ccccc2)CC1,8.85
7,O=C1/C(=C/c2ccncc2)SC(=S)N1Nc1ccccc1,14.8
8,C=CCN1C(=O)/C(=C\c2ccc(Cl)cc2)N=C1SCC(=O)NC1CCCCC1,6.35
9,CCN1CCN(C(=S)Nc2sc(C)c(-c3ccccc3)c2C(=O)OC)CC1,8.08
10,Cc1nc(SCC(=O)N(C)C2CCCCC2)[nH]c(=O)c1Cc1ccccc1,0.827
11,Cc1cccc(CSc2ccc3nnc(-c4cccnc4)n3n2)c1,-16
12,CN(C)CCCN(Cc1ccccc1)C(=S)Nc1ccc(F)c(Cl)c1,14.1
13,COc1ccccc1C(=O)Oc1ccc2c(c1)O/C(=C\c1ccncc1)C2=O,18
14,O=C(NC(=S)Nc1ccccc1N1CCCCC1)c1ccc(-c2cccc([N+](=O)[O-])c2)o1,15.6
15,O=C(Nc1ccc(C(=O)N2CCOCC2)cc1)c1cccc([N+](=O)[O-])c1,17.5
16,CCN1CCN(C(=O)/C=C/c2ccc(F)cc2)CC1,-13.1
17,O=C(CS(=O)(=O)c1cccc(C(F)(F)F)c1)Nc1ccccc1Cl,10.3
18,COc1ccc(CN2C(=S)NC(C)(C)CC2(C)O)cc1 (stereo not shown),4.01
19,CSc1nc(C)c(C(=O)C[n+]2ccccc2)cc1C#N.[Br-],8.95
20,Cc1ccccc1Oc1ccc(-c2nc(N)nc(N)n2)cc1,8.6
21,COCCn1c(N2CCCC2)nc2c1c(=O)[nH]c(=O)n2C,12.8
22,Cc1cc(=O)n2nc(N3CCCC(C(=O)NCCCN4CC(C)CC(C)C4)C3)sc2n1 (stereo not shown),17.6

row,SMILES,"hERG current change (%, negative = inhibition) at 1uM [%]"
1,O=C(CCCn1c(=O)[nH]c2cc(Cl)ccc2c1=O)NCCCN1CCCC1,18.3
2,O=C(COC(=O)c1ccc(Cl)cc1O)NCCN1C(=O)CSC1=O,8.58
3,CN(CC(=O)Nc1ccc(Cl)c(C(F)(F)F)c1)C(=O)c1ccc2c(c1)OCCO2,9.24
4,Cc1cc([N+](=O)[O-])nn1CC(=O)Nc1nccs1,12.7
5,Cc1ccc(N(CC2CO2)S(=O)(=O)c2ccc(C)cc2)cc1 (stereo not shown),15.3
6,O=C(Nc1ccnn1C1CCN(Cc2ccccc2OCCO)CC1)c1cccc(F)c1,-6.97
7,Cc1nn(-c2ccccc2)c(-c2ccccc2[N+](=O)[O-])c1C(=O)O,15.2
8,CCC(C)(C)c1nnc(NC(=O)c2ccc([N+](=O)[O-])cc2)s1,9.08
9,CN(C)c1nc(-c2cn(CCC#N)c3ccccc23)cs1,14.4
10,CN(CCc1ccccn1)C(=O)CCC1CCCN(C(=O)c2n[nH]c3c2CCCC3)C1 (stereo not shown),9.5
11,O=C(NC(=S)Nc1ccc(CN2CCOCC2)cc1)c1ccc(-c2ccc(Cl)cc2)o1,8.7
12,CCNC(=O)N1CCN(S(=O)(=O)c2ccc3c(c2)OCCCO3)CC1,6.9
13,Cc1cc(C)c2nc(Cl)c(Cl)nc2c1,11.7
14,CC(=O)c1cccc(N=C2C(=O)Nc3ccccc32)c1,0.588
15,COc1ccc([N+](=O)[O-])c(OC)c1C(=O)NC(=O)Nc1c(F)cc(F)cc1F,14.4
16,c1cncc(CNC2=NCCC2)c1,13.8
17,NS(=O)(=O)c1ccc(CCNC(=O)COC(=O)C2CCCN2C(=O)c2cccs2)cc1 (stereo not shown),12.5
18,CCCN1CCc2c(sc(NC(=O)Cc3ccc(F)cc3)c2C(N)=O)C1.Cl,-7.81
19,Cc1ccc(NC(=S)Nc2ccc(S(=O)(=O)Nc3ncccn3)cc2)c(C)c1,8.54
20,O=C(CCS(=O)(=O)c1cccc2nonc12)NCCc1ccccc1,7.02
21,Cc1c(C=Nc2ccc(S(=O)(=O)CCO)cc2)c(O)[nH]c(=O)c1C#N,17
22,Cc1ccc(-n2nc3c(=O)n(CCCC(=O)N4CCCCC4)nc(C)c3c2C)cc1,-9.99

row,SMILES,"hERG current change (%, negative = inhibition) at 1uM [%]"
1,CC(=O)c1c(C)c2c(n1CCN(C)C)CCCC2.Cl,6.44
2,Cc1ccc(C(=O)Nc2cc(-c3ccn[nH]3)c(C)n(N)c2=O)cc1,20.1
3,C/C(CC(=O)Nc1ccc(Cl)c(C(F)(F)F)c1)=N\NC(=O)c1ccccc1O,1.48
4,Cc1cc(C)n(S(=O)(=O)c2ccc3ccccc3c2)n1,0.267
5,Cc1ccc(NC(=O)CSc2nncn2N)cc1C,9.38
6,COC(=O)Cn1c(=O)cnc2ccccc21,9.02
7,Cc1ccc(CCNC(=O)C23CN(Cc4ccccc4)CC2C(c2cccc([N+](=O)[O-])c2)=NO3)cc1 (stereo not shown),17.7
8,CCC(c1nnnn1C(C)(C)C)N1CCN(C(=O)c2ccco2)CC1 (stereo not shown),11.3
9,CCOc1ccc(CNC(=O)CCCC(=O)n2ncc3cc(C)ccc32)cc1,19
10,CC(=O)c1cc2c(cc1NC(=O)c1cnc(C)cn1)OCO2,5.03
11,CC(Sc1nnc(-c2ccco2)n1C)C(=O)Nc1nccs1 (stereo not shown),-8.78
12,COc1ccc(-c2nc(SCc3ccccc3)n(C(=O)c3ccco3)n2)cc1,15.4
13,O=C1Nc2ccccc2C1(c1ccccc1)c1ccccc1,2.73
14,O=c1ccc2ccc(O[C@@H]3O[C@H](CO)[C@@H](O)[C@H](O)[C@H]3O)c(O)c2o1,14.6
15,C=CCCC(=O)N(C)CCO,15.1
16,Cc1coc2c(C)c3oc(=O)c(CCC(=O)NCCCN4CCCC4=O)c(C)c3cc12,-1.75
17,Cc1cc(C(=O)Nc2nc(-c3ccccn3)cs2)ccc1[N+](=O)[O-],12.8
18,OCC[C@H]1C[C@@H](O)[C@H](O)[C@@]2(Cc3ccccc3O2)O1,17.3
19,N=C1C(c2nc3ccccc3s2)=C(O)CN1NC(=O)c1c[nH]c2ccccc12,10.2
20,CC(=O)N1c2ccc(Cl)cc2C2OCCC2C1c1ccco1 (stereo not shown),14.9
21,O=C(Cc1ccc(Cl)cc1)Nc1ccccc1CO,10.8
22,COC(=O)c1cc2c(ccn2-c2ccc(F)cc2)n1Cc1ccc(OC)cc1,0.901

row,SMILES,"hERG current change (%, negative = inhibition) at 1uM [%]"
1,COc1cccc(CNC(=O)C(=O)NCCC2CCCCN2S(=O)(=O)c2ccccc2)c1 (stereo not shown),-9.44
2,CCCN(CC(=O)Nc1cccc(Br)c1)CC(=O)Nc1ccc(F)c(F)c1F,12.1
3,CSCC[C@H](NC(=O)C1CCCC1)c1nc2ccccc2[nH]1,14.8
4,CC1CCC2C(=O)N(c3ccc(NC4CCCCC4)c([N+](=O)[O-])c3)C(=O)C2C1 (stereo not shown),2.74
5,CN1C(=O)C2(c3ccccc31)c1c(oc3ccccc3c1=O)C(=O)N2CCCO (stereo not shown),14
6,CC(O)(CS(=O)(=O)Cc1ccc(Cl)cc1)C(=O)Nc1cccc(C(F)(F)F)c1 (stereo not shown),5.57
7,COC(=O)C1(C)NC(c2ccccc2OC)C2C(=O)N(c3ccccc3)C(=O)C21 (stereo not shown),11.1
8,COc1cccc(/C=N/NC(=O)c2cc3c(OC)cccc3[nH]2)c1O,21.1
9,COc1ccc(CCNS(=O)(=O)c2ccc(F)cc2)cc1OC,7.53
10,COc1ccc(N(C)C(=O)Nc2ccc3c(c2)nnn3C)cc1,11
11,COc1ccccc1NC(=O)COC(=O)[C@@H]1CCCN1C(=O)c1cccs1,-6.5
12,COC(=O)c1nc(NC(C)=O)n[nH]1,8.34
13,COC(=O)C1=C(N)OC(C)=C(C(C)=O)C12C(=O)N(C)c1ccccc12 (stereo not shown),3.92
14,CC(=O)Nc1ccc(NC(=O)CC(NC(=O)c2ccccc2)c2ccccc2)cc1 (stereo not shown),11.7
15,Cc1ccc(NC(=O)CCN2CCN(C)CC2)cc1.Cl,14.9
16,C=CCn1c(CCc2cc(C(C)(C)C)c(O)c(C(C)(C)C)c2)n[nH]c1=S,14.6
17,CC1CCN(c2nc(Cl)nc(Nc3ccc([N+](=O)[O-])cc3)n2)CC1,4.37
18,Cc1sc2nc(-c3ccc(Br)cc3)oc(=O)c2c1C,12.8
19,O=C(CNC(=O)c1cccs1)N/N=C/c1c(F)cccc1Cl,21.4
20,CC(C)CN1CCC(=O)N([C@H](CSc2ccccc2)Cc2ccccc2)CC1,-27.8
21,O=S(=O)(Cc1ccc(Cl)cc1)c1ncc(CO)n1Cc1ccccc1,4.54
22,CN(C)S(=O)(=O)c1ccc(N2CCCC2)c(C(=O)NNC(=O)c2ccc(Br)cc2)c1,3
